Assay results published in the supplement of paper PMC12645437, “Orthogonal IMiD-Degron Pairs Induce Selective Protein Degradation in Cells” (ACS Chemical Biology, 2025).
Some of the results follow.

Molecular target: no compound (DMSO)
Assay: log2 fold change of degron read counts, EGFP-low vs EGFP+ sorted cells; higher = lower degron-EGFP level without compound (poor expression or instability)
Settings: compound: DMSO control; 18 h
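Note: jurkat cells carrying a lentiviral library of mutant zinc finger degrons fused to EGFP plus mCherry, mCherry+ cells FACS sorted, degron abundance counted by next-generation sequencing.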

Sequence	log2 fold change of degron read counts
FDCEQCGACFTQKGNLLRHIKL	-1.78
FMCNQCGHLFTQKGNLLRHIKL	0.282
FCCNQCGAKFTQKGNLLRHIKL	-1.45
FYCEICGAKFTQKGNLLRHIKL	-1.83
FSCNQCGAIFTQKGNLLRHIKL	0.0437
FICEICGRHFTQKGNLLRHIKL	-0.274
LCCPICGFLCTQKGNLLRHIKL	1.48
LSCEICGFKCTQKGNLLRHIKL	-0.538
FHCEQCGAEFTQKGNLLRHIKL	-1.56
FSCPICGAIFTQKGNLLRHIKL	0.102
LQCPICGFWCTQKGNLLRHIKL	1.37
LDCPICGFMCTQKGNLLRHIKL	0.806
FWCPICGAVFTQKGNLLRHIKL	1.34
FTCNQCGRGFTQKGNLLRHIKL	-1.7
FTCEVCGATFTQKGNLLRHIKL	-3.07
FCCPQCGAHFTQKGNLLRHIKL	-0.127
FVCPICGRGFTQKGNLLRHIKL	-0.236
FACPICGHVFTQKGNLLRHIKL	-0.439
FWCDQCGANFTQKGNLLRHIKL	-0.657
FLCDVCGAEFTQKGNLLRHIKL	-2.36
FYCNQCGHDFTQKGNLLRHIKL	-0.601
FQCPQCGAKFTQKGNLLRHIKL	-0.945
FDCNVCGAQFTQKGNLLRHIKL	-0.933
FLCDICGAAFTQKGNLLRHIKL	-1.64
FNCPICGAGFTQKGNLLRHIKL	-0.387

Sequence	log2 fold change of degron read counts
FLCDVCGAVFTQKGNLLRHIKL	-1.95
FMCNICGAFFTQKGNLLRHIKL	0.162
FCCNQCGARFTQKGNLLRHIKL	-0.722
FRCPICGHLFTQKGNLLRHIKL	0.0774
LMCPICGFNCTQKGNLLRHIKL	0.597
LCCPICGFMCTQKGNLLRHIKL	0.87
FSCEICGHYFTQKGNLLRHIKL	-0.624
FMCDICGAFFTQKGNLLRHIKL	-1.13
FCCNQCGRRFTQKGNLLRHIKL	-0.198
FYCEICGHKFTQKGNLLRHIKL	-1.26
FDCEICGHDFTQKGNLLRHIKL	-0.838
LCCNQCGFHCTQKGNLLRHIKL	0.726
FDCPVCGAAFTQKGNLLRHIKL	-1.02
LICPICGFVCTQKGNLLRHIKL	1.24
FYCDICGATFTQKGNLLRHIKL	-1.03
FLCEQCGASFTQKGNLLRHIKL	-1.66
FYCNVCGASFTQKGNLLRHIKL	0.453
FKCPICGAIFTQKGNLLRHIKL	-0.582
FICDVCGANFTQKGNLLRHIKL	-2.12
FSCEQCGAMFTQKGNLLRHIKL	-1.38
FDCNQCGRHFTQKGNLLRHIKL	0.537
FQCEICGRHFTQKGNLLRHIKL	-0.654
FKCNVCGATFTQKGNLLRHIKL	-1.21
FGCNVCGAWFTQKGNLLRHIKL	0.351
FRCEVCGAVFTQKGNLLRHIKL	-2.82
